# Test results from PubChem BioAssay AID1865 (National Center for Advancing Translational Sciences (NCATS), 2009).
# About 540 (0.19%) of roughly 280,000 compounds were called active. The shares of active, inactive and inconclusive entries below differ from those in the screen. Calls come from the whole dose curve; as a rule, active = well fitted activation curve with a large enough effect; inconclusive = small, poorly fitted or top-dose-only effect; inactive = flat fitted curve, though single readings scatter. Potencies beside an inconclusive call are fits to weak or partial responses and may not hold up.
# Assay: Quantitative High-Throughput Screen for Regulators of Epigenetic Control; note: nearly all actives have a fitted effect of over 60% in size; for GFP activation: % of control where 0% means no effect
# Details: murine LDR cells, GFP reporter derepression, 30 h; GFP activation: at 53.9 µM (top of the series)
# Description: NIH Molecular Libraries Screening Centers Network [MLPCN] NIH Chemical Genomics Center [NCGC] MLSCN Grant: 1 X01 MH079860-01 Assay Provider: Elisabeth D. Martinez, University of Texas SW Medical Center NCGC Assay Overview: The Locus Derepression (LDR) assay detects the derepression or induction of a GFP reporter that is stably integrated in a genomic region of murine cells that is presumably silenced. Transcription of the GFP reporter is controlled by a CMV promoter, which normally is constitutively active. However, this cell line, termed LDR, was selected for lack of constitutive production of GFP. GFP production can be induced by incubating the cells with histone deacetylase or DNA methyltransferase inhibitors (Martinez et al., 2006). Compounds that derepress or induce this reporter locus are identified by enumerating GFP positive cells using a laser-scanning microplate cytometer (Auld et al., 2006). This assay was screened against the MLSMR earlier (AID 597; (Johnson et al., 2008) and has been rescreened here against the expanded collection.
# NCGC Assay Protocol Summary: Three hundred LDR cells in 5 uL per well were dispensed into black, clear-bottom 1536-well plates. Twenty-three nL compound was transferred to the assay plate and cells were incubated 30 hours at 37 C. Medium was removed, cells were washed two times with PBS, and GFP-positive cells were enumerated as fluorescent objects between the sizes of 20 to 120 um width and depth using an Acumen Explorer. References Auld, DS, Johnson, RL, Zhang, YQ, Veith, H, Jadhav, A, Yasgar, A, Simeonov, A, Zheng, W, Martinez, ED, Westwick, JK, Austin, CP, Inglese, J (2006). Fluorescent protein-based cellular assays analyzed by laser-scanning microplate cytometry in 1536-well plate format. Methods Enzymol 414: 566-89. Johnson, RL, Huang, W, Jadhav, A, Austin, CP, Inglese, J, Martinez, ED (2008). A quantitative high-throughput screen identifies potential epigenetic modulators of gene expression. Anal Biochem 375: 237-48. Martinez, ED, Dull, AB, Beutler, JA, Hager, GL (2006). High-content fluorescence-based screening for epigenetic modulators. Methods Enzymol 414: 21-36.
# Potency is the fitted concentration of half-maximal effect; tags give direction and shape of the fitted curve.
SMILES,Potency,GFP activation
CCCN(CC(=O)Nc1ccc(Cl)cc1Cl)C(=O)/C=C/c1ccco1,"inconclusive: 28.2 µM [activator, single point]",
CCOc1ccc(NC(=O)Cn2c(=O)n(Cc3ccco3)c(=O)c3ccc(C(=O)NC4CCCC4)cc32)cc1,"inconclusive: 25.1 µM [activator, single point]",
CCN(Cc1ccccc1)c1ccc(/C=C(\C#N)c2ccccn2)cc1,"inconclusive: 22.4 µM [activator, single point]",
CCOc1ccc(NC(=O)c2sc3nc4c(cc3c2N)CN(Cc2ccccc2)CC4)cc1,active: 15.8 µM,
CCN1C(=O)/C(=C2\C=Cc3cc(C)ccc3N2CC)OC1=S,,inactive: -1.04%
O=C(NC1CC(=O)N(c2ccc3c(c2)OCCO3)C1)c1c(F)cccc1Cl (centres undefined),"inconclusive: 1.12 µM [activator, partial curve]",
COC1=CC(=O)C(O)=C/C1=C\C=C\c1ccccc1,"inconclusive: 5.62 µM [activator, single point]",
CC(CN1CCOCC1)OC(=O)c1ccc(Br)cc1 (centres undefined),"inconclusive: 12.6 µM [activator, partial curve]",
COCCN(C(=O)CCCC(=O)Nc1ccccn1)C(C(=O)NC1CCCCC1)c1ccc(C)cc1 (centres undefined),"inconclusive: 4.47 µM [activator, single point]",
CN(C)c1ccc(-c2nc(NC3CCNCC3)c3ccccc3n2)cc1,active: 2.82 µM,
CCOc1ccc(Nc2cc(C)nc3nc(Cc4ccc(Cl)cc4)nn23)cc1,"inconclusive: 14.1 µM [activator, single point]",
Cc1ccc(-n2nc3c(N4CCC(C(=O)NC(C)c5ccccc5)CC4)nnc(C)c3c2C)cc1 (centres undefined),"inconclusive: 6.31 µM [activator, single point]",
CC(C)NC(=O)COc1ccc2c(c1)C(=O)CC(C)(C)O2,,inactive: 0.0725%
O=C(NCc1ccccc1Cl)c1ccc(Cn2c(=O)c3cccn3c3cccnc32)cc1,"inconclusive: 17.8 µM [activator, single point]",
CCOC(=O)C1=C(N)Oc2ccc(Br)cc2C1C(C#N)C(=O)OCC (centres undefined),,inactive: 1.05%
COc1cc(NS(=O)(=O)c2ccc(C)cc2)c2ncccc2c1,"inconclusive: 3.98 µM [activator, single point]",
O=C(N/N=C/c1ccc(-c2ccc(Br)cc2)o1)c1ccc2c(c1)OCO2,,inactive: 4.29%
CCOC(=O)c1nnc(-c2ccccc2)nc1Oc1ccccc1Cl,"inconclusive: 22.4 µM [activator, single point]",
O=C(C#Cc1cccc([N+](=O)[O-])c1)c1ccccc1,"inconclusive: 6.31 µM [activator, single point]",
